Test results: PubChem BioAssay AID1345083 (National Center for Advancing Translational Sciences (NCATS), 2018)
The campaign covered roughly 94,000 compounds. About 6,200 (6.6%) were called active. Inconclusive means that the source gave no clear call. Such entries were picked first, then a sample of the others. Calls come from the whole dose curve; as a rule, active = well fitted inhibition curve with a large enough effect; inconclusive = small, poorly fitted or top-dose-only effect; inactive = flat fitted curve, though single readings scatter. Potencies of inconclusive entries are doubtful fits and often do not repeat.

Assay: Cytotoxic Profiling in HEK 293 Cell Line of Diverse Libraries Using Quantitative High-Throughput Screening; note: nearly all actives have a fitted effect of over 60% in size
Settings: HEK 293 viability, ATP luminescence (CellTiter-Glo), 48-72 h; series mostly up to 115 µM
In short: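 qHTS cytotoxicity; HEK 293, 250 cells/well; compound pinned; 48 or 72 hr, 37 degree Celsius, 5% CO2, 95% humidity; CellTiter-Glo, 10 min RT; luminescence (ATP).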
Potency is the fitted concentration of half-maximal effect; tags give direction and shape of the fitted curve.

For CCCC1=Nc2cc(C(=O)NCCc3ccc(OC)c(OC)c3)ccc2Sc2ccc(C)cc21, which Potency is on record?
The Potency was inconclusive: 3.55 µM [inhibitor, full curve, poor fit].

Which Potency does the source give for COc1ccc(-c2cccc(COc3ccc4c(cnn4CC[S+](C)(=O)[O-])c3)c2)cc1 here?
Its Potency is inconclusive: 56.2 µM [inhibitor, full curve].

With COc1cccc(N2C(=O)NC(=NC3CCCCC3)C23CCCN(CC2CCCCC2)C3)c1 (stereo not drawn) as the compound, how does the Potency read?
The Potency was active: 31.6 µM.

For O=C(O)Cn1ccc2cc(OCCc3cccc(-c4cccc(F)c4)c3)cnc21, which Potency is on record?
Its Potency is inconclusive: 100 µM [inhibitor, partial curve].

Which Potency does the source give for CC(C)N1CC2CCC(C1)N2Cc1cccc(-c2ccsc2)c1 here?
Its Potency is inconclusive: 79.4 µM [inhibitor, partial curve, poor fit].

For CCOc1ccccc1NC(=O)N1c2ccccc2CC1c1noc(C(C)C)n1 (stereo not drawn), which Potency is on record?
The Potency was inconclusive: 25.1 µM [inhibitor, full curve].

Which Potency does the source give for CC[C@H]1CN(C(C)=O)CC[C@H]1CC(=O)NCc1ccccc1OC here?
The Potency was “inactive”.

Which Potency does the source give for Cc1cc(C(=O)N2C[C@H](C(N)=O)[C@H]3c4ccccc4N(CC4CC4)C(=O)[C@]32C)c(C)o1 here?
Its Potency is inconclusive: 39.8 µM [inhibitor, single point].

Which Potency does the source give for O=c1n(CC2CC2)nc2n1CCN(Cc1ccc3[nH]ccc3c1)CC2 here?
Its Potency is inconclusive: 100 µM [inhibitor, partial curve, poor fit].

With FC(F)(F)c1ccnc(N2CC[C@H](c3nnc(-c4ccncc4)o3)C2)n1 as the compound, how does the Potency read?
The Potency was inconclusive: 112 µM [inhibitor, partial curve, poor fit].

Which Potency does the source give for COc1ccccc1NC(=O)Cn1c(N2CCC(C)CC2)nc(C)cc1=O here?
Its Potency is inconclusive: 50.1 µM [inhibitor, partial curve, poor fit].

Which Potency does the source give for O=[S+]1([O-])NC2(CCN(CC3CCCCC3)CC2)CNc2ccccc21 here?
Its Potency is inconclusive: 100 µM [inhibitor, partial curve, poor fit].

With CC(=O)Nc1ccc(C(=O)NC2CCN(CCn3nc4n(c3=O)CCCC4)C2)cc1 (stereo not drawn) as the compound, how does the Potency read?
The Potency was “inactive”.

Which Potency does the source give for COc1ccc(NC(=O)Nc2cccc(-c3ccc(N4CCC(C)CC4)nn3)c2)cc1OC here?
Its Potency is inconclusive: 89.1 µM [inhibitor, single point].

With COCCn1c(C)cc(C(=O)N2CCC(N3C[C@H](O)C[C@H]3C(=O)NC3CCCCC3)CC2)c1C as the compound, how does the Potency read?
The Potency was “inactive”.

With COCC(=O)N1CCN(c2nc3ncccc3o2)CC1 as the compound, how does the Potency read?
Its Potency is “inactive”.

Which Potency does the source give for COc1ccc(CN2CCCn3nc(C)c(-c4ccccc4Oc4ccccc4)c32)cc1O here?
Its Potency is active: 20 µM.

Which Potency does the source give for Cn1c(=O)cc(C(=O)NC2CCCc3c2[nH]c2ccc(Cl)cc32)c2ccccc21 (stereo not drawn) here?
Its Potency is active: 31.6 µM.
